# Source: the BET-seq Pho4 binding data (Le et al. 2018)
# The other results are listed elsewhere or left out. The energies were worked out here from pooled read counts, against the library average; single values are noisy.
# Molecular target: T1, Pho4 (S. cerevisiae) (UniProt P07270)
# T1 sequence: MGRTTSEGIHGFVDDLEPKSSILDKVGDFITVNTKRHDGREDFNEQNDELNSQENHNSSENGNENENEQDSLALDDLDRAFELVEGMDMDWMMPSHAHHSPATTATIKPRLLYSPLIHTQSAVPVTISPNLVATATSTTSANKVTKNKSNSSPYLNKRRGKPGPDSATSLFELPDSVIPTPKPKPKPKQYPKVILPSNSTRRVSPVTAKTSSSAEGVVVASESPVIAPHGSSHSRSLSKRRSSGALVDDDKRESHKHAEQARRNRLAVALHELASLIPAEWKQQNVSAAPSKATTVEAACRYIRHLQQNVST
# Experiment: relative binding free energy (BET-seq); higher = weaker binding
# Details: reference: library average
row,Sequence,relative binding free energy [kcal/mol]
1,TTCTTCACGTGATAAT,0.35
2,AGTCGCACGTGATAGT,0.14
3,TAATTCACGTGGGAGA,0.27
4,CATGTCACGTGGCGTG,-0.06
5,TGAATCACGTGAGATG,0.41
6,GGAGGCACGTGATGAG,0.04
7,TGATTCACGTGAATGC,0.55
8,CAATACACGTGAGTGT,0.27
9,CTATACACGTGTAGGT,0.04
10,ATTGACACGTGTCTTG,0.02
11,TTGATCACGTGGATGA,0.26
12,TAGAACACGTGACTGG,0.24
13,TCTTCCACGTGTGTTT,0.11
14,CACTTCACGTGTTTTT,0.17
15,CAGGTCACGTGGGCAG,0.08
16,TGTCTCACGTGCGTTT,0.22
17,TAAAACACGTGGGGGG,-0.17
18,GGTCGCACGTGGAAAG,0.05
19,CGTTTCACGTGGGAGT,0.03
20,TGCGGCACGTGATCGG,-0.12
21,GCAGTCACGTGGGTAG,-0.06
22,TGGTACACGTGGTTTG,0.04
23,TCGGTCACGTGCTATT,0.04

row,Sequence,relative binding free energy [kcal/mol]
1,GGTATCACGTGGCGGA,0.03
2,TGGAACACGTGGGTTC,-0.09
3,TGCGTCACGTGATGTG,0.14
4,GAATACACGTGGTGAT,0.18
5,TATTACACGTGGTGTG,0.08
6,TTAATCACGTGAATTT,0.3
7,GATTTCACGTGTATCG,0.36
8,TTCAACACGTGTGGGG,0.09
9,TCTGGCACGTGCTAGG,-0.14
10,AGATTCACGTGCGTGA,0.26
11,TTTAGCACGTGGTGAG,-0.08
12,TAACGCACGTGGTTAT,-0.18
13,GGGTGCACGTGTTTAT,0.04
14,CGTAACACGTGTTGGG,-0.06
15,TGTGCCACGTGTGCGT,-0.06
16,TGAGACACGTGATAGT,0
17,CATGGCACGTGCGGGG,-0.13
18,GCTTGCACGTGGAGTT,0.03
19,GTGGCCACGTGGTAAG,-0.05
20,GGCGGCACGTGGTAAG,0
21,GGGGGCACGTGAGTGG,0.18
22,TTGTCCACGTGGCTGG,-0.16
23,TTGTTCACGTGGGTGA,0.26

row,Sequence,relative binding free energy [kcal/mol]
1,GGTTTCACGTGTGAGA,0.35
2,TATAGCACGTGGGGCG,-0.22
3,CGTGACACGTGGCGTT,0.04
4,TATTACACGTGTGATT,0.2
5,TTTAGCACGTGGAAAT,0.06
6,TTTTTCACGTGGGCCA,0.16
7,TTAATCACGTGGCGGG,0.01
8,GGGTGCACGTGGTCCT,-0.23
9,TTAGACACGTGTGAGA,0.04
10,ATGATCACGTGGTTAC,0.29
11,CAGTGCACGTGAATGG,0.16
12,TGAGACACGTGTGTTG,-0.12
13,TTGGGCACGTGCGTTG,-0.1
14,AGGTACACGTGGTGAC,0.02
15,CGGTGCACGTGTGGAT,0.02
16,TATATCACGTGACTTT,0.18
17,GCTGACACGTGGGTTA,-0.09
18,AGCAGCACGTGTGTGG,-0.06
19,TTCATCACGTGTGTGC,0.26
20,GTTATCACGTGGTTTC,0.1
21,ATGTGCACGTGCAAGG,-0.21
22,AGCTGCACGTGAGTGG,0.09
23,ATACACACGTGGGGTA,-0.12

row,Sequence,relative binding free energy [kcal/mol]
1,TGGAGCACGTGGGGAC,-0.01
2,ATTAACACGTGGGGTC,-0.22
3,TGGACCACGTGATGTG,-0.01
4,AATATCACGTGTGATG,0.17
5,TTTGTCACGTGGCAGT,0.05
6,GTAAGCACGTGGGGCA,-0.13
7,ATGGGCACGTGATTTA,-0.05
8,AAATTCACGTGTTAGA,0.28
9,GCGGTCACGTGGGTAT,-0.04
10,TGTAACACGTGTAGGG,-0.01
11,AAGAACACGTGCGGGG,0.05
12,ATGAACACGTGAATGG,0.36
13,AACGTCACGTGTGTGG,0.11
14,GTATACACGTGAATGG,0.26
15,TCGATCACGTGAATGG,0.49
16,TTAAACACGTGTTTGG,-0.01
17,TATCTCACGTGTAAGT,0.32
18,GGGAGCACGTGCCGGG,-0.17
19,TGATGCACGTGATATA,0.17
20,CATTGCACGTGTTTTG,0.05
21,TGGCGCACGTGTTAGG,-0.04
22,TATCACACGTGGGGGT,-0.21
23,CGCGGCACGTGGCGAG,-0.08

row,Sequence,relative binding free energy [kcal/mol]
1,GTAGTCACGTGCGTCT,0.16
2,TAATGCACGTGGGGAC,-0.16
3,GGGCGCACGTGCCTGG,-0.13
4,TGTTGCACGTGGTAAG,-0.07
5,GGTTGCACGTGATCTT,0
6,TGTCTCACGTGTGGAA,0.16
7,AAGGACACGTGGAGGT,0.08
8,AAATTCACGTGGTGTG,0.11
9,CTGCGCACGTGTGAGG,-0.03
10,TTTAGCACGTGTTCTG,-0.1
11,GGTTTCACGTGCAGTA,0.44
12,GATTTCACGTGTGGTC,0.57
13,TGTGTCACGTGCGGCG,-0.05
14,CGACTCACGTGTTGTG,0.23
15,GTAAGCACGTGTAATT,0.1
16,TTTTTCACGTGGCATG,0.25
17,TTGGGCACGTGATGTG,0.02
18,TAGTGCACGTGTCGTG,-0.01
19,TGTGACACGTGTTACT,-0.14
20,GGTGACACGTGGCGGG,0.06
21,TTGTCCACGTGTAGTG,0.04
22,TAATTCACGTGATGTG,0.23
23,ATGAACACGTGTAGGG,0.04
